Experimental findings from a collection of fitness landscapes (doi:10.1126/science.1257360) are described below.

B1: PhoQ; a variant is named by its letters at X, in order, P23837 (parent)
chain: MKKLLRLFFPLSLRVRFLLATAAVVLVLSLAYGMVALIGYSVSFDKTTFRLLRGESNLFYTLAKWENNKLHVELPENIDKQSPTMTLIYDENGQLLWAQRDVPWLMKMIQPDWLKSNGFHEIEADVNDTSLLLSGDHSIQQQLQEVREDDDDAEMTHSVAVNVYPATSRMPKLTIVVVDTIPVELKSSYMVWSWFIYVLSANLLLVIPLLWVAAWWSLRPIEALAKEVRELEEHNRELLNPATTRELTSLVRNLNRLLKSERERYDKYRTTLTDLTHSLKTPLXXLQXXLRSLRSEKMSVSDAEPVMLEQISRISQQIGYYLHRASMRGGTLLSRELHPVAPLLDNLTSALNKVYQRKGVNISLDISPEISFVGEQNDFVEVMGNVLDNACKYCLEFVEISARQTDEHLYIVVEDDGPGIPLSKREVIFDRGQRVDTLRPGQGVGLAVAREITEQYEGKIVAGESMLGGARMEVIFGRQHSAPKDE

The other results are listed elsewhere or left out.

In this assay the parent is B1. Put plainly: enrichment ratio after two sorts for PhoP signalling (ratio (wild type AVST 3.29)); higher = more functional. To be noted: with PhoP (E. coli).
Consider KLPN, for which the enrichment ratio was no more than 0.25. Next, RRTR: no more than 0.25. Next, STEG: no more than 0.25; IKYA: no more than 0.25; CVPI: no more than 0.25. The value for GRSI was no more than 0.25.

Consider GPTS, for which the enrichment ratio is no more than 0.25.

As for HPPG, the enrichment ratio was no more than 0.25. Next, PYKQ: no more than 0.25; TGFF: 0.829; DVRG: no more than 0.25.

Consider GKAP, for which the enrichment ratio is no more than 0.25. Next, NEAA: no more than 0.25; DWSV: no more than 0.25.

Consider RCQT, for which the enrichment ratio is no more than 0.25. For NMCP, the enrichment ratio is no more than 0.25.

For the variant LRLV, the enrichment ratio was no more than 0.25.

Take MKMQ: the enrichment ratio is no more than 0.25.

Turning to ATWS, the enrichment ratio is no more than 0.25. The value for FYPE was no more than 0.25. Next, RDTT: no more than 0.25. The value for AVWN was no more than 0.25.

Consider KHQF, for which the enrichment ratio is no more than 0.25.

On to YDQD, for which the enrichment ratio is no more than 0.25.

For RCRY, the enrichment ratio was no more than 0.25. Next, SKTN: 1.11; TQWQ: 5.92; FEFN: no more than 0.25. Next, TDRS: no more than 0.25. The value for DKEP was no more than 0.25; that for NQLR was no more than 0.25. Regarding MNEV, the enrichment ratio is no more than 0.25. Next, NFGF: no more than 0.25.

Consider LHNQ, for which the enrichment ratio is no more than 0.25.

With HVRI, the enrichment ratio was no more than 0.25. The value for PVGM was no more than 0.25; that for TPDI was no more than 0.25; that for VLYQ was no more than 0.25. Next, LENE: no more than 0.25. Next, PRFH: no more than 0.25; QKFR: no more than 0.25; PDAK: no more than 0.25.

Regarding GLPW, the enrichment ratio is no more than 0.25.

On to QGGH, for which the enrichment ratio is no more than 0.25. The value for STRM was no more than 0.25; that for IWSW was no more than 0.25; that for KVAV was no more than 0.25.

Take GARP: the enrichment ratio was no more than 0.25.

As to TAYT, the enrichment ratio was 0.959. The value for LVAL was no more than 0.25; that for FSEC was no more than 0.25; that for YVSV was no more than 0.25. Next, VLLG: no more than 0.25; KIFV: no more than 0.25; TPMS: no more than 0.25. Next, DNVE: no more than 0.25; AQRN: no more than 0.25. With PQKY, the enrichment ratio was no more than 0.25. Next, WGTS: no more than 0.25; MDPD: no more than 0.25; RETS: no more than 0.25.

With MTAL, the enrichment ratio came out at 5.98.

As to TAFK, the enrichment ratio was no more than 0.25.

As for SWCY, the enrichment ratio was no more than 0.25. The value for PDPR was no more than 0.25; that for KTDA was no more than 0.25. As to MRFQ, the enrichment ratio was no more than 0.25. On to YIPN, for which the enrichment ratio was no more than 0.25. The value for QVAW was no more than 0.25; that for PEEQ was no more than 0.25. Next, KYST: no more than 0.25; STAK: no more than 0.25.

Turning to DKSR, the enrichment ratio is no more than 0.25. The value for LKRI was no more than 0.25; that for IWCG was no more than 0.25.

In the case of SLMY, the enrichment ratio is no more than 0.25. Turning to HHLQ, the enrichment ratio was no more than 0.25. The value for YQYQ was no more than 0.25; that for PTRY was no more than 0.25; that for HWKT was no more than 0.25. The value for WSQF was no more than 0.25. The value for YCDR was no more than 0.25. With MNIT, the enrichment ratio stood at 4.55. Next, NPRP: no more than 0.25; FFYM: no more than 0.25. As for RIRH, the enrichment ratio was no more than 0.25.

With WVLI, the enrichment ratio is no more than 0.25. Next, QMNN: 12.1; AREC: no more than 0.25; KARG: no more than 0.25. Next, TFPL: no more than 0.25; EMNH: no more than 0.25. Next, WWHQ: no more than 0.25.

Consider PNDE, for which the enrichment ratio is no more than 0.25.

For the variant PLTR, the enrichment ratio was no more than 0.25.

As for LRVW, the enrichment ratio is no more than 0.25. Next, TNLL: 4.87; KTHK: no more than 0.25; HLTF: no more than 0.25. Regarding ITNA, the enrichment ratio is no more than 0.25.

Turning to VSYT, the enrichment ratio is no more than 0.25. On to RDRT, for which the enrichment ratio is no more than 0.25. Next, YFHK: no more than 0.25; PHFD: no more than 0.25; DVQC: no more than 0.25.

For FMWD, the enrichment ratio is no more than 0.25. Next, NKEK: no more than 0.25. For the variant SYGA, the enrichment ratio was no more than 0.25.

Consider WKKY, for which the enrichment ratio is no more than 0.25. Next, NPWP: no more than 0.25. The value for LGIS was no more than 0.25. In the case of EQLF, the enrichment ratio was no more than 0.25.

With YGCN, the enrichment ratio was no more than 0.25. The value for TRTD was no more than 0.25; that for EHVS was no more than 0.25.

For the variant NFQR, the enrichment ratio was no more than 0.25. The value for WCEK was no more than 0.25; that for YPHE was no more than 0.25; that for MAFL was 12.9. Turning to GMHY, the enrichment ratio was no more than 0.25. The value for PNLE was no more than 0.25. Next, SGDD: no more than 0.25; EPYS: no more than 0.25; KKSL: no more than 0.25. The value for EAKS was no more than 0.25. On to RMKT, for which the enrichment ratio is no more than 0.25. The value for NWTK was no more than 0.25; that for FPRN was no more than 0.25. Next, YCIR: no more than 0.25; CSCT: no more than 0.25.

On to PQAA, for which the enrichment ratio is no more than 0.25.

As to PSRP, the enrichment ratio was no more than 0.25.

With MKQV, the enrichment ratio was no more than 0.25. With PVTA, the enrichment ratio is no more than 0.25. Next, TKAM: 6.56; VGNK: no more than 0.25. For the variant NANP, the enrichment ratio was no more than 0.25.

Turning to QLDF, the enrichment ratio is no more than 0.25. Next, ANHP: no more than 0.25. Next, EVAC: no more than 0.25; VTDK: no more than 0.25; QRSI: no more than 0.25. In the case of MLQI, the enrichment ratio was no more than 0.25. Next, FFPN: no more than 0.25; PSEN: no more than 0.25.

With VFIS, the enrichment ratio was no more than 0.25. The value for RFLR was no more than 0.25; that for ATKI was no more than 0.25. On to PEVH, for which the enrichment ratio was no more than 0.25. Next, YYTI: no more than 0.25; PRDG: no more than 0.25; GKLC: no more than 0.25. The value for FLSI was no more than 0.25; that for YFQG was no more than 0.25; that for NTYM was no more than 0.25. Regarding VRDF, the enrichment ratio is no more than 0.25. The value for LMVI was no more than 0.25; that for LCVN was no more than 0.25; that for AEPQ was no more than 0.25. The value for EHEY was no more than 0.25; that for AIHI was no more than 0.25. Take IYHL: the enrichment ratio was no more than 0.25.

In the case of GLTN, the enrichment ratio is no more than 0.25. The value for EFPC was no more than 0.25; that for VFRM was no more than 0.25; that for SAAN was 11.7. Next, GHEI: no more than 0.25; KMTW: no more than 0.25. Next, TQRN: no more than 0.25; HQFM: 5.44; IGCR: no more than 0.25. For MICM, the enrichment ratio was found to be 5.81. The value for GDMS was no more than 0.25. For TQIP, the enrichment ratio is no more than 0.25.

SFLI: the enrichment ratio is 0.615. The value for RYKV was no more than 0.25; that for TGAP was no more than 0.25; that for NMWP was no more than 0.25.

QYAG: the enrichment ratio was no more than 0.25. Next, MSNC: no more than 0.25; SFST: no more than 0.25; FEHE: no more than 0.25. The value for KCFN was no more than 0.25; that for HKPM was no more than 0.25. Regarding VTMD, the enrichment ratio was no more than 0.25. Next, NVRW: no more than 0.25.

Consider RGTC, for which the enrichment ratio is no more than 0.25. The value for TGMF was 9.36; that for MHSQ was no more than 0.25; that for DVHL was no more than 0.25. Next, TQYK: no more than 0.25; MTWQ: 6.29; MCIF: no more than 0.25.

As to HAEP, the enrichment ratio was no more than 0.25. The value for RCAG was no more than 0.25.
